In all, about 52,000 compounds went through this assay and about 1,700 (3.3%) were called active. Rule as the data show it: active = survival mostly below about 52% (no sharp cut-off); inactive = mostly above about 56%. Some of the results follow.
tested on: Wild type; assay: S. aureus survival, RN4220 and DeltatarO strains – OD600, teichoic acid synthesis inhibitors, primary screen (AID 463173); details: S. aureus RN4220 wild type/DeltatarO growth, OD600, 18 h, stronger effect = lower value, screened at 18.75 µg/mL (by protocol)

SMILES | survival
CCOc1ccccc1NC(=O)Cn1c(=O)n(-c2ccc(F)cc2)c(=O)c2c3c(sc21)CN(C(C)=O)CC3 | inactive: 114%
CCCN(C(=O)COc1cc(=O)n(CC)c2ccccc12)c1ccc(C(C)C)cc1 | active: -7%
CCc1ccc(-n2nc(C)c3c(C(=O)Nc4cc(C)c(Cl)cc4OC)cc(C)nc32)cc1 | inactive: 80%
CCc1ccc(-c2nn(CC(=O)NCc3ccccc3)c3c2cnc2ccc(C)cc23)cc1 | inactive: 73%
CC(C)c1ccc(NC(=O)CCS(=O)(=O)c2cccc3nonc23)cc1 | inactive: 98%
CC(=O)Nc1ccc(NC(=O)c2cc3sccc3n2Cc2ccc(Cl)cc2)cc1 | inactive: 91%
Cc1cc(C)cc(NC(=O)Nc2ccccc2OCc2cc(=O)n3ccccc3n2)c1 | inactive: 72%
COc1cc(NC(=O)Cn2cnc3c2c(=O)n(C)c(=O)n3C)c(OC)cc1Cl | inactive: 74%
CCOC(=O)c1c(NC(=O)/C(C#N)=C/c2ccccc2)sc2c1CCC2 | inactive: 72%
CCOc1ccccc1NC(=O)c1c(NCc2cccs2)sc2c1CCCCC2 | inactive: 74%
CCOc1ccc(NC(=O)c2c(NC(=O)c3ccccc3F)sc3c2CCC3)cc1 | inactive: 134%
CCOc1cc(/C=C(\C#N)C(=O)Nc2ccc(C)cc2)ccc1OCc1cc(=O)n2nc(CC)sc2n1 | inactive: 94%
Cc1cc(C)nc(SCCC(=O)Nc2ccccc2)n1 | inactive: 106%
O=C(COc1ccccc1)NCC1CCCO1 (configuration not stated) | inactive: 115%
COc1ccc2c(c1)CC(C(=O)NCCCN1CCN(c3ccccc3F)CC1)CO2 (configuration not stated) | inactive: 68%
C#CCn1cnc2c(cnn2-c2ccc(F)cc2)c1=O | inactive: 78%
CCC(=O)N1CCc2cc(Br)cc(S(=O)(=O)CCC(=O)Nc3ccc(C)c(F)c3)c21 | inactive: 72%
Cc1ccc(C)c2nc(SCC(=O)OC(C)C)c(C#N)cc12 | inactive: 100%
COc1cccc2c1Oc1ncccc1N(C(=O)CCC(=O)NC(C)C)C2 | inactive: 70%

SMILES | survival
CCC(=O)N1CCc2cc(CNS(=O)(=O)c3ccc(NC(=O)CC(C)C)cc3)ccc21 | inactive: 75%
CCc1c(C)sc2c1CCN(C(=O)Nc1cc(Cl)c(OC)cc1OC)C2c1ccccc1 (configuration not stated) | inactive: 45%
CCOC(=O)/C(C#N)=C/c1ccc(N2CCCCC2)o1 | inactive: 126%
CCN(CC)S(=O)(=O)c1ccc(NC(=O)c2c(C)oc3ncnc(N4CCOCC4)c23)cc1 | inactive: 73%
CCn1c(C)c(C)c2cc(C(=O)NCc3ccc(OC)cc3OC)ccc21 | inactive: 84%
Cc1[nH]c2ccc(-c3nnc(SCc4ccc(F)cc4)o3)cc2c1C | inactive: 103%
COc1ccc2c(c1)-c1nc(/N=C/c3ccc(C)o3)sc1CC2 | inactive: 114%
CC(C)(C)c1ccc(C2=NC(C)(C)N(CC(=O)Nc3ccc(F)c(F)c3)C2=O)cc1 | inactive: 98%
Cc1ccc(-c2nnc(Nc3ccc(OCC(N)=O)cc3)c3ccccc23)cc1S(=O)(=O)N(C)C | inactive: 109%
COc1ccc(-c2onc(C)c2C)cc1S(=O)(=O)N1CCN(c2ccc(Cl)cc2)CC1 | inactive: 57%
CC(C)OC(=O)c1c(NC(=O)COc2cccc(Br)c2)sc2c1CCCC2 | inactive: 102%
O=C(CSc1nc2c([nH]c3ccccc32)c(=O)n1-c1ccccc1)N1CCOCC1 | inactive: 75%
CC(CNC(=O)C1CCN(S(=O)(=O)c2ccc3c(ccn3C)c2)CC1)c1ccccc1 (configuration not stated) | inactive: 73%
CCN(CC)CCn1c(-c2ccccc2)csc1=Nc1ccccc1 | inactive: 45%
Cc1ccc(OCCn2c(-c3ccc(Br)cc3)nc3ccccc3c2=O)cc1C | inactive: 70%
O=C1CC(c2cccc(O)c2)c2cc3c(cc2N1)OCO3 (configuration not stated) | inactive: 85%
CCCCN(CC)CCCNC(=O)C1CCCN(c2ncnc3c2nc2n3CCCCC2)C1 (configuration not stated) | inactive: 71%
COc1ccc(NC(=O)Cn2c(=O)n(Cc3ccccc3Cl)c(=O)c3cc(OC)c(OC)cc32)cc1OC | inactive: 73%
Nc1nonc1C(=O)NCCNCc1cccc(Cl)c1Cl | inactive: 71%

SMILES | survival
O=C(COc1ccccc1[N+](=O)[O-])N1CCC(c2nc3ccccc3o2)CC1 | inactive: 78%
Cc1c(CC(=O)NCCc2ccccc2F)c(=O)oc2cc(O)c(Cl)cc12 | inactive: 72%
O=C(O)c1ccc(S(=O)(=O)c2ccc3c(c2)C(=O)N(C2CCCCC2)C3=O)cc1 | inactive: 109%
Cc1ccc(NC(=O)c2c(C)oc3ccc(O)c(CN4CCCCCC4)c23)cc1 | inactive: 108%
CC(C)(C)NC(=O)CSc1nncn1NCc1ccccc1 | inactive: 99%
CC(C)S(=O)(=O)c1oc(-c2cccs2)nc1S(=O)(=O)c1ccc(F)cc1 | inactive: 22%
Cc1ccc(-n2ncc3c(N(CC(C)C)CC(C)C)ncnc32)c(C)c1 | inactive: 71%
CCN(CCCNC(=O)c1cc(Nc2ccc(OC)cc2OC)nc2ccccc12)c1cccc(C)c1 | inactive: 92%
O=C(CN1CCC(c2nc3ccccc3s2)CC1)N1CCCCC1 | inactive: 98%
Cc1ccc(CCNC(=O)c2c(C)oc3nc(C)nc(N4CCOCC4)c23)cc1 | inactive: 124%
Cn1cc(-c2cc3n(n2)CCC(=O)N3CC(=O)NCc2ccc(Cl)cc2)c2ccccc21 | inactive: 75%
CCOc1ccc(CNC(=O)c2ccc3c(c2)nnn3C2CCCC2)cc1 | inactive: 72%
Cc1cccc(Cn2c(=O)n(Cc3ccc4c(c3)OCO4)c(=O)c3oc4ccccc4c32)c1 | inactive: 88%
CCc1ccccc1NC(=O)c1cc2nc(-c3ccc(OC)c(OC)c3)cc(C(F)(F)F)n2n1 | inactive: 79%
Cc1ccc(S(=O)(=O)C(CNC(=O)Cc2ccc(Cl)cc2)c2cccs2)cc1 (configuration not stated) | inactive: 94%
CC(C)c1c(O)nc(SCCN2CCOCC2)[nH]c1=O | inactive: 95%
CCc1ccc2oc(-c3ccc(N)cc3)nc2c1 | inactive: 115%
CC(C)C(=O)Nc1cccc(C(=O)Nc2nnc(CC(C)(C)C)s2)c1 | inactive: 73%
O=c1oc2c(CN3CCCC3)c(O)ccc2cc1-c1ccccc1 | inactive: 140%
